These results are taken from the supplement of paper PMC8047034.

Structures can show the parent of a compound that is named as a salt. Some of the results follow. Repeats are few or missing, and single values can be far off.

Assay [1] relates to OVCAR4. The assay can be described thus: log2 surviving fraction (library drug vs vehicle, or drug + carboplatin vs carboplatin alone; relative to plate median); ovarian cancer lines: OVCAR4 is platinum-sensitive and Ov4Carbo platinum-resistant; higher = more cell survival. As to conditions: library drug concentration 10 µM, 7 days.
The subject of assay [2] is Ov4Carbo. The assay is described as above. As to conditions: library drug concentration 10 µM, 7 days.

For the compound `COC(=O)Nc1nc2cc([S+]([O-])c3ccccc3)ccc2[nH]1` (configuration not stated) [Oxfendazole], the log2 surviving fraction is -0.536 in assay [1] (carboplatin co-treatment 0 µM), -4.78 in assay [1] (carboplatin co-treatment 5 µM), -1.69 in assay [2] (carboplatin co-treatment 0 µM) and -0.205 in assay [2] (carboplatin co-treatment 5 µM).
For `CC(C)NCC(O)c1ccc(NS(C)(=O)=O)cc1` (configuration not stated) [Sotalol (Betapace)] the same measures were -0.108, -0.617, 0.125 and 0.267.
`CC1(C)[C@@H](O[C@H]2O[C@H](C(=O)O)[C@@H](O)[C@H](O)[C@H]2O[C@@H]2O[C@H](C(=O)O)[C@@H](O)[C@H](O)[C@H]2O)CC[C@]2(C)[C@H]3C(=O)C=C4[C@@H]5C[C@@](C)(C(=O)O)CC[C@]5(C)CC[C@@]4(C)[C@]3(C)CC[C@@H]12` [Ammonium Glycyrrhizinate (AMGZ)]: the log2 surviving fraction was -0.591 in assay [1] (carboplatin co-treatment 0 µM), 0.0643 in assay [1] (carboplatin co-treatment 5 µM), -0.354 in assay [2] (carboplatin co-treatment 0 µM) and -0.63 in assay [2] (carboplatin co-treatment 5 µM).
On the same counts, the results for `Nc1c2c(nc3ccccc13)CCCC2` [Tacrine HCl] are -0.748, -6.83, -0.172 and -0.0302.
As to `COC(=O)Nc1nc2cc(C(=O)c3ccc(F)cc3)ccc2[nH]1` [Flubendazole (Flutelmium)], the log2 surviving fraction in assay [1] (carboplatin co-treatment 0 µM) is -0.387; in assay [1] (carboplatin co-treatment 5 µM), 0.695; in assay [2] (carboplatin co-treatment 0 µM), -0.859; in assay [2] (carboplatin co-treatment 5 µM) it was -5.94.
Regarding `O=C1[C@@H]2[C@H]3CC[C@H](C3)[C@@H]2C(=O)N1C[C@@H]1CCCC[C@H]1CN1CCN(c2nsc3ccccc23)CC1` [Lurasidone HCl], the log2 surviving fraction in assay [1] (carboplatin co-treatment 0 µM) is -0.962; in assay [1] (carboplatin co-treatment 5 µM), -0.879; in assay [2] (carboplatin co-treatment 0 µM), -0.858; in assay [2] (carboplatin co-treatment 5 µM), -0.82.
For `CC(C)(C)CC(C)(C)c1ccc(O)c(Cc2ccc(Cl)cc2Cl)c1` [Clofoctol] the same measures were -7.75, -5.56, -0.32 and -1.
Regarding `CS(=O)(=O)c1ccc(C2=C(c3ccccc3)C(=O)OC2)cc1` [Rofecoxib (Vioxx)], the log2 surviving fraction in assay [1] (carboplatin co-treatment 0 µM) was 0.336; in assay [1] (carboplatin co-treatment 5 µM) it was -0.456; in assay [2] (carboplatin co-treatment 0 µM) it was -0.405; in assay [2] (carboplatin co-treatment 5 µM) it was -0.0533.
